# The supplement of paper PMC9446081
# In all, about 39,000 compounds went through this assay and about 220 (0.56%) showed activity. The list shows a part of the results.
# Test system: Escherichia coli K-12 BW25113
# Test: relative growth (OD600 normalised to plate interquartile mean) (fraction); higher = less growth inhibition, active = 0.2 or less
# Settings: 50 µM; LB; incubation time: overnight (16-24 h)
# 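Note: static incubation at 37 °C against the wild-type strain, values averaged over two biological replicates.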
row,SMILES,relative growth
1,C[C@@H]1CN([C@H](C)CO)C(=O)Cc2cc(NC(=O)CCN3CCOCC3)ccc2O[C@@H]1CN(C)CC1CCCCC1,inactive: 1.01
2,C[C@@H]1CN([C@H](C)CO)C(=O)Cc2cc(NC(=O)Cc3cn(C)c4ccccc34)ccc2O[C@H]1CN(C)Cc1ccc(Oc2ccccc2)cc1,inactive: 1.01
3,C[C@H]1CCCCO[C@@H](CN(C)C(=O)Nc2ccccc2)[C@@H](C)CN([C@@H](C)CO)C(=O)c2cc(NC(=O)Cc3ccccc3)ccc2O1,inactive: 0.993
4,Cc1noc(C)c1NC(=O)Nc1cccc2c1O[C@H](CN(C)C(=O)Nc1ccc(C(F)(F)F)cc1)[C@H](C)CN([C@@H](C)CO)C2=O,inactive: 0.972
5,C[C@H](CO)N1C[C@H](C)[C@H](CN(C)C(=O)NC2CCCCC2)Oc2ccc(NC(=O)Nc3ccc(C(F)(F)F)cc3)cc2C1=O,inactive: 0.999
6,C[C@@H]1CN([C@@H](C)CO)C(=O)c2cc(NC(=O)Nc3cccc4ccccc34)ccc2O[C@H]1CN(C)Cc1ccc(Oc2ccccc2)cc1,inactive: 1.04
7,C[C@@H]1CN([C@H](C)CO)C(=O)Cc2cc(NC(=O)CCCCCC(=O)Nc3ccccc3N)ccc2O[C@@H]1CN(C)Cc1ccccc1,inactive: 1
8,Cn1[nH]cc2c(=O)cccc1-2,inactive: 0.866
9,CC(C)NC(=O)Nc1cccc2c1O[C@H](CN(C)S(=O)(=O)c1ccc(F)cc1)[C@H](C)CN([C@H](C)CO)C2=O,inactive: 1
10,C[C@H]1CCCCO[C@@H](CN(C)CC2CCCCC2)[C@@H](C)CN([C@@H](C)CO)C(=O)c2cc(NC(=O)C3CCCCC3)ccc2O1,inactive: 0.972
11,C[C@@H]1CN([C@H](C)CO)C(=O)c2cccc(NC(=O)Nc3ccc(C(F)(F)F)cc3)c2O[C@H]1CN(C)Cc1ccncc1,inactive: 0.992
12,C[C@@H]1CN([C@H](C)CO)C(=O)c2cccc(NS(=O)(=O)c3cccs3)c2O[C@H]1CN(C)Cc1ccc(Cl)c(Cl)c1,inactive: 0.994
13,C[C@@H]1CN([C@H](C)CO)C(=O)Cc2cc(NC(=O)C3CC3)ccc2O[C@@H]1CN(C)Cc1ccc(Oc2ccccc2)cc1,inactive: 0.984
14,CC(C)NC(=O)N(C)C[C@@H]1Oc2ccc(NC(=O)Cn3cnnn3)cc2C(=O)N([C@@H](C)CO)C[C@@H]1C,inactive: 0.985
15,C[C@H](CO)N1C[C@H](C)[C@@H](CN(C)C(=O)Nc2cccc3ccccc23)Oc2ccc(NC(=O)Nc3cccc4ccccc34)cc2CC1=O,inactive: 1.01
16,O=C(C[C@H]1CC[C@H]2[C@@H](COC[C@@H](O)CN2S(=O)(=O)c2ccccc2)O1)N[C@H]1CCN(Cc2ccccc2)C1,inactive: 1
